Reference: the RNAGym collection of RNA variant scans (doi:10.7554/elife.90254)
Read counts are not given, so values of variants with three or more changes are uncertain.

B1: LINE1-mini (parent)
chain: GGCAGAGCUCAACACAGCGUGGCAAAGUGGCUGUGGCUAGACUGCC

Variants of: B1
Assay: self-cleavage, relative activity (ratio to wild type); higher = more cleavage; in vitro, sequencing; the parent is a self-cleaving ribozyme

Variant	self-cleavage
G1U C13G G22A	0.1
G1U G2C C10A G19U A26G	0.01
G1U G5U U9A	0.02
G1U C10U C15A C18A	0.01
G1U C13U C23A A25C A26G G27A	0.03
G1U C3A C18G G29A G40A	0.33
G1U C10A C23A	0.02
G1U G2A G22A A25G A26U G33C U34G	0.01
G1U C10U A16C G40U	0.01
G1U C18A A26U G29U C46A	0.92
G1U C10A U20G G21U	0.01
G1U C10G A12U C46A	0.02
G1U G2U A6C C10G A16U G30C	0
G1U G2A G7U C13U A16C C23G U38A	0.1
G1U G2U G29A	0.32
G1U C3G A14G C15U	0.37
G1U G5C C42U	0.03
G1U G5A A6G U20A A25U G27C U34C	0.04
G1U C3G G5C C10U	0.13
G1U G2U C10U G21A C37A	0.04
G1U C18A G22U G33U A39G	0.06

Variant	self-cleavage
G1U A24C U28G	0.21
G1U C8G U20A C23U G33U G44A	0.02
G1U C8U C10A G17C	0.03
G1U A14U A39G C42G	0.08
G1U C31G G36A	0.08
G1U C23G G29A	0.29
G1U G5U A14G G19C G29U C42U C46G	0.01
G1U G2C A39G	0.04
G1U C10U A11U G33U	0.01
G1U G2U G7A A14U U20A U34C	0.01
G1U C13U C23U C31G A39U G44C	0.03
G1U C15U G27U U38C	0.46
G1U G5A C31G U32C G35C C37U G44A	0.07
G1U G5C A11U	0.03
G1U C3G A26C	0.09
G1U C15G G40A A41C	0.03
G1U G2A A25C G33A	0.14
G1U A24U C37A G40C	0.05
G1U C10G A16U	0
G1U G2U C23U	0.03
G1U C15U A26U G27A G40U	0.02

Variant	self-cleavage
G1U G5U G17C C23A A24G	0.03
G1U C18A A26G A41G	0.02
G1U G2C C8G C46G	0.01
G1U C13U G19C	0.03
G1U C3G C18U U20A C37A U43C	0.08
G1U C8A A26U G40U	0.06
G1U C37A U38A	0.09
G1U G5U A11U A14C C31G	0.01
G1U C13U A14U G19C C42G	0.04
G1U G2A G29A U32A	0.55
G1U C18U A24C G36A	0.03
G1U G5U G21U U32C	0.11
G1U C8G A14U C23G U38G	0.01
G1U C18U G19U C23G	0.8
G1U C3G C37U A41C C45U	0.07
G1U C15G U28A C31U	0
G1U G2C C10G U34A	0
G1U C3G C8U	0.13
G1U C8U C13U U38C	0.02
G1U C3A C42A	0.14
G1U A25U G29A	0.29

Variant	self-cleavage
G1U C15U G35A	0.02
G1U G5U C10A G33U	0.01
G1U G2U C8U A12G G30C U34C	0.01
G1U C15U G17A	0.04
G1U C18A G36A	0.02
G1U C10A C45G	0
G1U G2C U20C	0.05
G1U C10U A12C U38G	0.01
G1U G2C U9A A24G U32G G33C G44C	0.02
G1U C13A G35U	0.66
G1U C13A G35C	0
G1U A24U G40U	0.03
G1U C10A C13U A39C	0.01
G1U G5U U28C C31G A41C	0.01
G1U A24U G33U	0.08
G1U C10U G17C G36A G40A U43A	0
G1U C15A G17U	0.01
G1U C13A G17A C37G G44C	0.06
G1U G2C U9A G19A A41C	0.01
G1U G2A G7A C18U A39U	0.01
